According to the supplement of paper PMC5499739:
The full ranking holds about 16,000 sequences; the median of “Z-score” is about -0.37, and the highest 2% start at about 3.1. The list shows a part of the results.

Each sequence was assayed on RBM10 RRM1-ZnF-RRM2 (GST-tagged construct) (assay: RNAcompete 7-mer binding Z-score; higher = stronger binding preference).
Procedure, shortened: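 A one-sided Z-score for enrichment, taken across the probes containing each heptamer motif, was assigned to every such motif. The RNA came from a designed pool of 241 399 sequences up to 41 nt (1.5 nmol), bound by 20 pmol of GST-tagged RBM10 constructs in 1 ml Hepes pH 7.8 buffer with glutathione Sepharose beads for 30 min at 4°C. Four 2-min washes at 4°C preceded identification of bound RNA by microarray hybridisation.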

Point of comparison: UGGUUAU, “RNAcompete 7-mer binding Z-score” value 0.519. Against it:
- CUUCCUU — lower, -0.759
- AGUGCGC — lower, 0.297
- UGCGCCC — lower, -0.584
- GCCCAAC — lower, -0.683
- UAUGUAG — lower, 0.221
- UGAGAUG — higher, 1.02
- CGUACAA — lower, -0.26
- UUGCAUC — lower, -0.712
- CCUCUCG — lower, -0.814
- AGAGAUA — lower, 0.461
- GCAAGUA — lower, 0.0167
- ACUCAUG — lower, -0.65
- GAAGAUC — lower, -0.195
- CCGGCAG — lower, -0.0306
- GUCGUAA — lower, 0.0167
- AUAACUA — lower, -0.595
- AAUGCCA — lower, -0.293
- CAACAGC — lower, -0.238
- UACGUUU — lower, -0.763
- GAAGACG — higher, 1.14
- UGGAUAG — higher, 2.3
- AAUGACG — lower, 0.243
- GCCUUUG — lower, -0.755
- UAGGUCA — lower, 0.403
- GGUCGCA — higher, 0.64
- AAUGGAC — higher, 2.1
- CUCGGUC — lower, -0.584
- AGACUCU — lower, -1.03
- GUUACGA — lower, 0.272
- ACGUCCU — lower, -0.876
- AUAAAGC — lower, -0.362
- CACGAGC — lower, -0.147
- CGACCGA — lower, -0.493
- CCGGUGC — lower, -0.136
- AAAGUAG — higher, 0.749
- CAAUAGC — lower, -0.209
- UUCGCCA — lower, -0.803
- GCCGUCG — lower, -0.209
- CAAUCAC — lower, -0.468
- ACUUCGC — lower, -0.897
- CAACCAA — lower, -0.358
- CGCGCCA — lower, -0.457
- UGCACCA — lower, -0.581
- CUGUCUG — lower, -0.806
- GUUUUAC — lower, -0.57
- CGGUUAG — higher, 0.691
- AGAGCCG — lower, -0.675
- CCUAGGC — lower, -0.664
- AUCAGAC — lower, -0.144
- GUUCUUA — lower, -0.675
- CACAGCG — lower, 0.0131
- UGGCUUA — lower, -0.409
- GGCACAA — lower, 0.487
- GGGCCAC — lower, 0.275
- GCUUAAA — lower, -0.628
- CAACGCU — lower, -0.661
- AUGUUAA — lower, -0.537
- GCUGCGA — lower, -0.307
- CGAAUCU — lower, -0.766
- GACAUUU — lower, -0.752
- GGUCACU — lower, -0.027
- AGUUCAA — lower, -0.311
- ACAUAUG — lower, 0.0058
- GCACCCA — lower, -0.664
- UCCCUGU — lower, -0.799
- CCAUCUU — lower, -0.967
- AAUUAGG — higher, 1.46
- GGAAUCU — lower, -0.227
- UAUUUAA — lower, -0.584
- ACGUUAC — lower, -0.278
- CGGUACG — higher, 0.545
- UUGCACU — lower, -0.635
- CUGAGAA — lower, -0.431
- GAGGAAU — higher, 1.71
- CUUCUAC — lower, -0.894
- CUAAAGU — lower, -0.588
- UGGACCA — lower, 0.239
- GGGUCUC — higher, 0.731
- GGAGGCA — higher, 2.81
- GGCCGGA — higher, 0.803
- ACUUAAU — lower, -0.854
- AUAUUUU — lower, -0.952
- GCAGCCU — lower, -0.551
- GUCAGGA — higher, 0.884
- GCCCUGC — lower, -0.766
- CUAUAAC — lower, -0.723
- ACUAGAG — lower, -0.0634
- AUGACAG — higher, 0.567
- GGAGCCA — higher, 0.654
- ACGGAGG — higher, 2.57
- AUGGACA — higher, 2.24
- GCCAUUC — lower, -0.883
- GCAGCUG — lower, -0.133
- CUCAGAG — lower, -0.384
- AUCUCAU — lower, -0.799
- CCUGGAC — lower, -0.548
- GUGUUGC — lower, 0.162
- AUGGCGU — higher, 0.705
- CUGGUAA — lower, 0.0167
- GUCGGAU — higher, 0.574
- UUUUAUA — lower, -0.715
- ACCAGCA — lower, -0.417
- GGCAGUU — lower, 0.148
- GGGGGUU — higher, 3.29
- CUCCAGG — lower, -0.439
- AGCGGUA — higher, 1.25
- AAUAAAU — lower, -0.3
- CUUUCUG — lower, -0.839
- GGGGGCA — higher, 2.33
- UGCAACU — lower, -0.439
- UGACUCU — lower, -0.606
- GGACUAA — lower, 0.297
- GGUACCG — higher, 0.672
- AGCCUUA — lower, -0.901
- AUAAGAC — lower, -0.0707
- UGGUACC — lower, 0.417
- GACUCCC — lower, -0.752
- GGAUCCU — lower, -0.0816
- GUGAUGG — higher, 2.56
- CUCCAUG — lower, -0.643
- CUUCAGG — lower, -0.26
- CGGUUGU — lower, -0.00148
- GAGACCC — lower, -0.588
- CACGAUG — lower, -0.286
- UCAUAAU — lower, -0.839
- CGCCGGG — lower, 0.122
- CCCGCAU — lower, -0.755
- UCUAUAG — lower, -0.464
- CUCCCAU — lower, -0.686
- UCGCUUU — lower, -0.77
- GACGUGU — lower, 0.111
- AGCUUAG — lower, -0.464
- CGAGCAU — lower, -0.129
- UCAGGAA — higher, 0.993
- UCGGCCA — lower, -0.581
- UGGAACG — higher, 1.92
- AAAAUCG — lower, -0.409
- AAAUUAC — lower, -0.621
- CUGCUAA — lower, -0.876
- AUUUAAA — lower, -0.592
- GGUUGCC — lower, 0.206
- CCCGACU — lower, -0.748
- ACCAAAU — lower, -0.253
- UGGUUGU — higher, 1
- UGGAUGU — higher, 1.19
- UUAAACA — lower, -0.562
- GGGCUAU — higher, 0.869
- AAUUCUC — lower, -0.69
- CCAGAGA — lower, 0.166
- CACCUCG — lower, -0.479
- AAGCGCC — lower, -0.46
- GCGCAUU — lower, -0.439
- UGGAUGG — higher, 3.42
- GUUUAAG — lower, 0.243
- CGUCCGU — lower, -0.592
- GUAGGAA — higher, 2.37
- CUGCCCA — lower, -0.584
- CACGGGU — higher, 1.78
- AGACUAG — lower, -0.078
- UAUAAUC — lower, -0.428
- GAUAAGG — higher, 3.81
- CCAUGCU — lower, -0.876
- AGAACAG — higher, 0.596
- GACAGGU — higher, 2.38
- GUGAUUG — lower, 0.508
- UAUGCAG — lower, 0.279
- UCUAUGA — lower, -0.595
- AGUGGAG — higher, 3
- ACGGAGC — higher, 1.18
- UUAGCUA — lower, -0.533
- UGUGCUA — lower, -0.38
- CCAUUUU — lower, -1.08
- AGCUUCA — lower, -0.683
- UGUGUAU — lower, -0.165
- GCGCCAG — lower, 0.166
- UGGGUAA — higher, 2.38
- AAACAGG — higher, 2.71
- AUCUGAG — lower, -0.449
- AGGUCCU — lower, -0.471
- AAAUCCG — lower, -0.646
- AUUGCUU — lower, -0.752
- CCAUGGC — lower, -0.271
